For 58 compounds, survival results are on record in PubChem BioAssay AID463173 (ICCB-Longwood Screening Facility, Harvard Medical School, 2010).

Each structure is given as a SMILES string. Hit rate of the full screen: of about 52,000 compounds, about 1,700 (3.3%) were called active. Cut-off read from the data, not from the text of the source: active = survival mostly below about 52% (no sharp cut-off); inactive = mostly above about 56%. Some of the results follow.

The assay concerns Wild type. Briefly: growth inhibition of S. aureus wild type versus tarO mutant, primary screen, teichoic acid synthesis inhibitors, RN4220, OD600 (AID 463173). Conditions: S. aureus RN4220 wild type/DeltatarO growth, OD600, 18 h, hits give low values, screened at 18.75 µg/mL (by protocol).
Turning to `CCOC(=O)Nc1ccc2c(c1)OCO2`, the survival was inactive: 116%.

On to `Cc1ccc(-c2cc(C(=O)N3CCN(S(=O)(=O)c4ccc(Br)s4)CC3)[nH]n2)c(C)c1`, for which the survival was inactive: 65%.

For `COc1cc(-c2nnc(SCC(=O)NC(C)C)o2)cc(OC)c1OC`, the survival is inactive: 115%.

In the case of `CCOc1ccc(CCNC(=O)C2Cc3ccccc3N2C(=O)CC)cc1OCC` (stereo not drawn), the survival was inactive: 92%.

As for `CCC(NC(C)=O)c1ccccc1` (stereo not drawn), the survival is inactive: 112%.

As to `Cc1ccc(N(CC(=O)Nc2ccc(Br)c(C)c2)S(=O)(=O)c2cccs2)cc1`, the survival was inactive: 82%.

On to `CN(C)c1ccc(CNC(=O)C(Cc2ccccc2)NS(=O)(=O)c2ccc3c(c2)oc(=O)n3C)cc1` (stereo not drawn), for which the survival was inactive: 85%.

In the case of `CCc1ccc(CNC(=O)Cc2c(C(=O)O)c(C)cn2C)cc1`, the survival is inactive: 63%.

Turning to `CCc1nnc(SCc2nc(-c3ccccc3)oc2C)c2cc3sccc3n12`, the survival is inactive: 78%.

For the compound `N#Cc1cc2cc3c(cc2nc1SCC(=O)N1CCN(c2ccc(F)cc2)CC1)OCCO3`, the survival is inactive: 113%.

`COc1ccc(-c2cn3nc(N4CCC(C(=O)Nc5cc(Cl)ccc5OC)CC4)sc3n2)cc1`: the survival is inactive: 81%.

For the compound `CC(C)(C)OC(=O)N1CCC(c2c(C(=O)N3CCN(c4ncccn4)CC3)cnn2-c2ccc(F)cc2F)CC1`, the survival was active: 1%.

For the compound `Cc1ccc(C)c(NC(=O)Cn2c(=O)n(Cc3cccs3)c(=O)c3cccnc32)c1`, the survival is inactive: 74%.

For the compound `COc1ccc(-c2nc(SCC(=O)N3CCC(C)CC3)n[nH]2)cc1`, the survival was inactive: 159%.

Take `Nc1c(C(=O)Nc2ccc(Cl)cc2F)sc2nc(-c3cccs3)ccc12`: the survival was inactive: 58%.

In the case of `COc1ccc(OC)c(NC(=O)C(CCSC)NS(=O)(=O)c2cccs2)c1` (stereo not drawn), the survival is inactive: 78%.

Take `Cc1ccccc1C(=O)Nc1ccc2nc(SCCOc3ccccc3)sc2c1`: the survival was inactive: 90%.

As to `COc1ccc2sc(N3C(=O)C4CC=C(C)CC4C3=O)nc2c1` (stereo not drawn), the survival was inactive: 99%.

For the compound `CCOC(=O)c1c(S(=O)(=O)NCC(=O)NCc2ccc(C)cc2)c(C)n(C)c1C`, the survival was inactive: 81%.

Regarding `Fc1ccc(CNc2cc(-c3ccccc3)nc3nncn23)cc1`, the survival is inactive: 29%.

On to `COc1ccc(C(=O)Nc2ccc(C(=O)OCc3cc(=O)n4nc(C(C)C)sc4n3)cc2)cc1`, for which the survival is inactive: 67%.

Consider `Cc1ccc(Cl)cc1NC(=O)/C(C#N)=C\c1cn(Cc2ccc(F)cc2)c2ccccc12`, for which the survival was inactive: 83%.

Consider `CCN(CC)CCOC(=O)c1ccc(NC(=O)c2cc3c(=O)n(CC)c4ccccc4c3s2)cc1`, for which the survival is inactive: 106%.

On to `Cc1ccc(S(=O)(=O)N2CCC(C(=O)NCc3ccccc3Cl)CC2)cc1`, for which the survival was inactive: 64%.

Turning to `Cc1cccc(NC(=O)c2cc(S(=O)(=O)NCCc3ccccc3)ccc2F)c1C`, the survival was inactive: 69%.

Take `COc1ccccc1C1c2c(-c3ccc(Cl)cc3)n[nH]c2C(=O)N1c1ccc(C)cc1` (stereo not drawn): the survival was inactive: 85%.

As to `Cc1ccccc1C(=O)Nc1cccc(OCc2cc(=O)n3c(C)csc3n2)c1`, the survival is inactive: 92%.

Regarding `CCN1CCN(Cc2c(O)ccc3c(C)c(-c4ccc(OC)cc4)c(=O)oc23)CC1`, the survival was inactive: 136%.

In the case of `CCCCCn1c(=O)[nH]c2cc(C(=O)Nc3ccc(F)c(F)c3)ccc2c1=O`, the survival was inactive: 98%.

For the compound `CCc1ccc(N2C(=O)C3C(C(=O)OC)=NN(C(C)=O)C3C2=O)cc1` (stereo not drawn), the survival is inactive: 102%.

`N#Cc1ccc(-c2cccs2)nc1SCC(=O)Nc1cccc(C(F)(F)F)c1`: the survival is inactive: 74%.

Consider `Cc1cc(SCC(=O)NCc2ccc(Cl)cc2)nc(=O)[nH]1`, for which the survival was inactive: 91%.

In the case of `Cc1ccccc1S(=O)(=O)Cc1ccc(C(=O)N2CCN(c3cccc(Cl)c3)CC2)o1`, the survival was inactive: 68%.

As to `COc1ccc(NC(=O)C2=CC(c3ccco3)=NS(=O)(=O)N2C)cc1`, the survival was inactive: 107%.

Turning to `Cc1ccc(C)c(NC(=O)CN2CCSc3ccc(S(=O)(=O)N4CCCC4)cc32)c1`, the survival is inactive: 75%.

On to `COc1ccccc1N1CCN(c2ncnc3c2nnn3C)CC1`, for which the survival is inactive: 129%.

For `CCOC(=O)c1oc2ccc(S(=O)(=O)n3nc(-c4ccc(C)cc4)cc3N)cc2c1C`, the survival was inactive: 74%.

For `COCCn1nnnc1CN(Cc1ccco1)Cc1cc2cc(OC)ccc2[nH]c1=O`, the survival is inactive: 107%.

`COc1ccc(NC(=O)C2CCN(S(=O)(=O)c3cccc(-c4noc(C)n4)c3)CC2)cc1OC`: the survival was inactive: 72%.

Take `CC(C)c1ccc(S(=O)(=O)N2CCC(n3c(C(F)(F)F)nc4cccnc43)CC2)cc1`: the survival is inactive: 75%.

Consider `CC(C)c1ccc(CN(C(=O)c2cc3ccccc3oc2=O)C2CCS(=O)(=O)C2)cc1` (stereo not drawn), for which the survival was inactive: 68%.

`CCOCCn1ccc2c(OCC(=O)Nc3ccc(C(N)=O)cc3)cccc2c1=O`: the survival is inactive: 32%.

`Cc1cc(C)nc(NC(=O)C(c2ccccc2)c2ccccc2)n1`: the survival is inactive: 119%.

Take `Cn1c(-c2ccc(NC(=O)c3ccccc3)cc2)n[nH]c1=S`: the survival is inactive: 113%.

Regarding `COc1cccc2sc(N(Cc3cccnc3)C(=O)c3ccc4c(c3)OCCO4)nc12`, the survival is inactive: 75%.

`CCCc1nc2ccccc2c(NC(=O)CN(CC)CC)c1CC`: the survival was inactive: 103%.

Consider `CC(NC(=O)C1CCN(S(=O)(=O)Cc2ccccc2)CC1)c1ccccc1` (stereo not drawn), for which the survival was inactive: 86%.

For `COC(=O)c1cc2occc2n1Cc1nc(-c2ccccc2)oc1C`, the survival is inactive: 80%.

For the compound `CCCc1nn2c(=O)cc(COC(=O)c3ccc(NC(=O)COc4ccc(F)cc4)cc3)nc2s1`, the survival is active: 10%.

In the case of `CN(C)c1ccc(CNC(=O)C2CCN(c3nc4ccccc4[nH]3)CC2)cc1`, the survival was inactive: 45%.

Consider `Cc1cc(S(=O)(=O)N2CCN(Cc3noc(CCC(=O)N4CCCCC4)n3)CC2)ccc1F`, for which the survival is inactive: 68%.

Take `CCNS(=O)(=O)c1cccs1`: the survival was inactive: 108%.

For `CC(C)c1ccc(-c2nnn(CC(N)=O)n2)cc1`, the survival is inactive: 115%.

Consider `Cc1cccc(NC(=O)Cn2cc(C(=O)C3CCCCC3)c3ccccc32)c1`, for which the survival is inactive: 116%.

As for `CSc1ccc(CCNC(=O)NCc2noc3ccccc23)cc1`, the survival is inactive: 89%.

For the compound `COc1ccc(Cn2c(CCC(=O)NCc3ccc(Cl)cc3)nc3cccnc32)cc1`, the survival is inactive: 110%.

On to `COc1cc2c(-c3cccc(Cl)c3)nc3c(c(C)nn3-c3ccccc3)c2cc1OC`, for which the survival is inactive: 90%.

`COc1cccc(CNC(=O)c2cnc3sc(N4CCCC4)nn3c2=O)c1OC`: the survival is inactive: 65%.
